The sample as a whole holds a higher share of the strongest signals than the screen did.
Legend:
Neu5Gc(a2-6)GalNAc = assay: glycan array binding signal (z-score within array); higher = stronger binding; details: glycan notation: IUPAC condensed, linker removed
In short: (§1)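 Glycan array binding is given as a within-array Z-score, which can be read as non-binding when negative. The arrays, 3228 of them, came from the Consortium for Functional Glycomics database and were retained only where the protein sequence was available. Z-scores were averaged across arrays of the same protein sequence at different concentrations or buffers and across linkers.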

[1] = system: Neu5Gc(a2-8)Neu5Gc(a2-6)Gal(b1-4)GlcNAc; assay: as above; details: glycan notation: IUPAC condensed, linker removed
In short: as §1

| Substance | glycan array binding signal (z-score) (Neu5Gc(a2-6)GalNAc) | glycan array binding signal (z-score) [1] |
| --- | --- | --- |
| Siglec-2 (Homo sapiens) (chain not printed) | -0.208 |  |
| L-Ficolin (Homo sapiens) (chain not printed) | 1.27 |  |
| Gal 3 (Homo sapiens) (chain not printed) |  | -0.187 |

From the supplement of paper PMC8728848
